Results as given in the supplement of paper PMC11166567.
The other results are listed elsewhere or left out.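 The calls were made as follows: active = permutation test q below 0.05 after Benjamini-Hochberg correction; inactive = q of 0.05 or more.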

How the values were obtained:
A549 = assay: mean average precision of replicate retrieval against DMSO controls (Cell Painting phenotypic activity) (fraction (0-1)); higher = stronger, more reproducible morphological phenotype distinct from DMSO; extreme values may be limits of the assay; conditions: 5 µM
U2OS = assay: as above; conditions: 5 µM
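Also: cosine similarity of well-level aggregated Cell Painting profiles ranks each compound's replicate wells against DMSO wells, four replicate plates, significance from 100,000 rank shuffles.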

| Compound | mean average precision (A549; 24 h) | mean average precision (A549; 48 h) | mean average precision (U2OS; 24 h) | mean average precision (U2OS; 48 h) |
| --- | --- | --- | --- | --- |
| FC(F)OC(F)(F)C(F)Cl (centres undefined) | inactive: 0.08 | active: 0.44 | inactive: 0.07 | inactive: 0.0731 |
| C/C(=C\c1csc(C)n1)[C@H]1C[C@@H]2O[C@]2(C)CCC[C@H](C)[C@H](O)[C@@H](C)C(=O)C(C)(C)[C@H](O)CC(=O)O1 | active: 1 | active: 1 | active: 1 | active: 1 |
| Cc1[nH]cnc1CCN | inactive: 0.336 | active: 0.748 | active: 0.528 | active: 0.497 |
| COc1ccc(C[C@H]2NC[C@H](O)[C@H]2OC(C)=O)cc1 | active: 1 | active: 1 | active: 1 | active: 1 |
| C=C1CCC2(O)C3Cc4ccc(O)c5c4C2(CCN3CC2CC2)C1O5 (centres undefined) | active: 0.48 | active: 0.5 | active: 0.551 | active: 0.565 |
| O=C1NC(=O)c2c1c1c3ccccc3[nH]c1c1[nH]c3ccccc3c21 | active: 1 | active: 1 | active: 1 | active: 1 |
| O=P1(N(CCCl)CCCl)NCCCO1 (centres undefined) | inactive: 0.224 | active: 0.592 | active: 0.678 | active: 0.362 |
| O=C1NCN(c2ccccc2)C12CCN(CC1COc3ccccc3O1)CC2 (centres undefined) | active: 0.505 | active: 0.313 | active: 0.456 | active: 0.334 |
| O[C@H]1[C@H](O)[C@@H](O)CN2CC[C@H](O)[C@H]12 | inactive: 0.225 | inactive: 0.212 | inactive: 0.299 | inactive: 0.0632 |
| C[C@@H]1C[C@@H]([C@H](O)CC2CC(=O)NC(=O)C2)C(=O)[C@@H](C)C1 | active: 1 | active: 1 | active: 1 | active: 1 |
| C[C@@H]1CN(Cc2ccc(F)cc2)CCN1C(=O)COc1ccc(Cl)cc1NC(N)=O | active: 0.343 | active: 0.979 | active: 0.758 | active: 0.727 |
| CCCCC/C=C\C/C=C\C/C=C\C/C=C\CCCC(=O)NCCO | active: 0.439 | active: 0.52 | active: 0.586 | inactive: 0.246 |
| OC(Cc1ccncc1)C(Cl)(Cl)Cl (centres undefined) | inactive: 0.229 | active: 0.503 | active: 0.611 | inactive: 0.233 |
| C=C(C)[C@@H]1[C@H]2OC(=O)[C@H]1[C@]1(O)C[C@H]3O[C@]34C(=O)O[C@H]2[C@]14C | active: 0.33 | active: 0.725 | active: 0.457 | inactive: 0.0817 |
| CC(C)(O)C1C2OC(=O)C1C1(O)CC3OC34C(=O)OC2C14C (centres undefined) | active: 0.382 | active: 0.638 | inactive: 0.119 | inactive: 0.0901 |
| Nc1ccncc1 | active: 0.409 | active: 0.461 | active: 0.355 | inactive: 0.19 |
| CCOC(=O)c1ncc2[nH]c3ccc(OCc4ccccc4)cc3c2c1COC | active: 0.742 | active: 0.993 | active: 0.913 | active: 0.993 |
| NCC(CS(=O)(=O)O)c1ccc(Cl)cc1 (centres undefined) | inactive: 0.187 | inactive: 0.278 | active: 0.439 | inactive: 0.101 |
| CCC1(C2=NCCN2)Cc2ccccc2O1 (centres undefined) | inactive: 0.297 | inactive: 0.206 | inactive: 0.107 | inactive: 0.104 |
| COc1ccc(N(C(=O)Oc2c(C)cccc2C)c2ccnc(Nc3ccc(N4CCN(C)CC4)cc3)n2)c(OC)c1 | active: 1 | active: 1 | active: 1 | active: 1 |
| COc1cc2c(c(OC)c1OC)-c1ccc(OC)c(=O)cc1[C@@H](NC(C)=O)CC2 | active: 1 | active: 1 | active: 1 | active: 1 |
